This note sets out measurements from PubChem BioAssay (NCI).

“And” between values parts separate entries of the source, which are not always exact repeats. Identical values can stand only once.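 The compound was tested at five concentrations on cells cultured in 96-well plates, with a 48-hour exposure period. At the GI50, growth is halved. TGI: total growth inhibition.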

The assay concerns NCI-H322M lung. In words: NCI tumour cell line growth inhibition, 48 h.
In the case of `Cc1ccc(N(CC(=O)Nc2ccc(S(=O)(=O)NC3CCN(C)CC3)cc2)S(=O)(=O)c2ccc(Cl)cc2)cc1`, the GI50 is 3.38 µM and the TGI stood at 12.9 µM.

For the compound `COc1cc(C(=O)Nc2cccc3ccccc23)c(Br)c(OC)c1OC`, the TGI was > 100 µM.

`CC(=O)c1ccc(Nc2cc(-n3nnc4ccccc43)nc3ccccc23)cc1`: the GI50 was 16.9 µM and the TGI worked out at 51.1 µM.

In the case of `Cc1cc2c(cc1O)[nH]c1cc3c(cc12)C=CC(C)(C)O3`, the GI50 was 13.1 µM and the TGI was > 25 µM.

On to `[N-]=[N+]=CC(=O)OC1CCOCC1`, for which the TGI is > 100 µM.

As to `NCCCNc1nc2ccccc2c2c(=O)c3cccc(F)c3sc12`, the GI50 was 1.53 µM and the TGI was determined as 2.93 µM.

Turning to `C#CCCOC(=O)CC1=C(C)/C(=C/c2ccc(S(C)=O)cc2)c2ccc(F)cc21` (centres undefined), the TGI was 37.5 µM.

On to `COc1ccccc1/C=C/C(=O)c1ccc(Nc2nc(Nc3ccc(F)cc3)nc(Nc3ccc(F)cc3)n2)cc1`, for which the GI50 was 28.2 µM and the TGI is > 100 µM.

On to `COc1cccc(-c2nc(-c3cnccn3)n(C3OC(CO)C(O)C3O)n2)c1` (centres undefined), for which the TGI was > 100 µM.

For the compound `CC1COC(c2cn[nH]c2C(N)=O)C1O` (centres undefined), the TGI was > 100 µM.

In the case of `C=CCOC1=C(OC(C)=O)C(=O)OC1C1COC(C)(C)O1` (centres undefined), the TGI was > 100 µM.

Turning to `Oc1ccc(OCCOc2ccc(O)cc2)cc1`, the GI50 was 46.2 µM and the TGI is > 100 µM.

For `CCCCc1ccc(NS(=O)(=O)c2cc3c4c(c2)CCN4C(=O)CC3)cc1`, the GI50 is 69.6 µM and the TGI is > 100 µM.

As for `FC(F)(F)c1cccc(C=NC23CC4CC(CC(C4)C2)C3)c1`, the TGI is > 100 µM.

For the compound `O=C(O)/C(=C/c1ccccc1)c1ccccc1`, the TGI is > 100 µM.

As to `CCCCN1C=CCN(CCCC)C1`, the GI50 is > 100 µM and the TGI is > 100 µM.

As for `CCCCCCCCCCCCC(=O)CCCCC(=O)O`, the TGI came to 37.6 µM.

As to `CCC1(O)C(=O)OCc2c1cc1n(c2=O)Cc2cc3cc(OC)c(OC)cc3nc2-1` (centres undefined), the TGI is > 100 µM.

For `CCCCCCCCCCCC(=O)N(CCCCCCCCCCC(=O)O)CC(O)C(O)C(OC1OC(CO)C(O)C(O)C1O)C(O)CO` (centres undefined), the TGI was > 100 µM.

With `Cc1ccc(S(=O)(=O)OCC23CCC(C2)C2CC23)cc1` (centres undefined), the TGI is > 100 µM.

For the compound `O=c1[nH]cnc2c1ncn2C1CCC(CO)O1` (centres undefined), the GI50 is > 1000 µM and the TGI was > 1000 µM.

On to `C=CCN1C(=O)CNC1=S`, for which the TGI is > 100 µM.

For the compound `CCCCCCCCCCCCCCCCOCC(Cl)CP(=O)(O)OP(=O)(O)OCC1OC(n2cnc3c(N)ncnc32)C(O)C1O` (centres undefined), the TGI is > 100 µM.

`COC(=O)/C(C#N)=C1\CCC(OC)N1` (centres undefined): the TGI is > 100 µM.

Regarding `CN(C)c1nc2nonc2nc1Nc1ccccc1`, the TGI is > 100 µM.

With `COc1cc(C2CC(c3ccc(SC)cc3)=NN2C(C)=O)cc(OC)c1OC` (centres undefined), the GI50 was 30.8 µM and the TGI is > 100 µM.

As for `COc1cc(C=C2c3ccccc3C(=O)c3ccccc32)ccc1OCCCCOc1cc2c(cc1OC)C(=O)N1CCCC1C=N2` (centres undefined), the GI50 is 0.945 µM and the TGI was determined as 2.31 µM.

With `Nc1nc(SCc2ccccc2)nc2[nH]ncc12`, the GI50 is 15.4 µM and the TGI came to 29 µM.

Turning to `CC[C@@]1(O)C(=O)OCc2c1cc1n(c2=O)Cc2c-1nc1ccccc1c2/C=N/NC(=O)C[N+](C)(C)C`, the TGI was > 100 µM.

`CS(=O)(=O)OCOS(C)(=O)=O`: the TGI is > 100 µM.

As for `COc1cc2c(c(OC)c1OC)CCNC2C1=C(O)COC1=O` (centres undefined), the TGI is > 100 µM.

As to `CC(=O)O[C@]1(C)CCC2C(C)C(=O)OC2C2C(C)[C@@H](O)CC21` (some centres undefined), the TGI was > 100 µM.

`CN(C)/C=N/S(=O)(=O)c1nn2c(C=O)c(-c3ccccc3)nc2s1`: the TGI was > 80.3 µM.

On to `OCc1cc2c([nH]c3ccccc32)c(C(O)CO)n1` (centres undefined), for which the TGI was > 100 µM.

In the case of `COC1=C(C)C(=O)N2[C@@H]1[C@H](c1ccccc1)OC21C=CC(=O)C=C1`, the GI50 is 16.6 µM and the TGI was > 43.8 µM.

As for `O=C1c2ccccc2C(=O)N1[C@@H](Cc1ccccc1)C(=O)n1cccc1CO`, the TGI is > 100 µM.

In the case of `O=C(O)[C@@H](NS(=O)(=O)c1ccc(F)cc1)c1ccccc1`, the TGI is > 100 µM.

As to `N#Cc1cc(-c2ccnc(Nc3ccc(NC(=O)CCl)cc3)n2)ccc1N1CCCC1`, the GI50 is 6.47 µM and the TGI was > 25 µM.

Turning to `CN(C)CCCNc1nc2ccccc2c2c(=O)c3cc(F)ccc3sc12`, the GI50 is 1.6 µM and the TGI worked out at 2.99 µM.

`COc1ccc(NC2C(=O)C3(C)CCC2C3(C)C)cc1` (centres undefined): the TGI is > 100 µM.

`CC(=O)O[C@H]1CC[C@@]2(C)C(=CC[C@@H]3C2CC[C@]2(C)Nc4c(cnn4-c4ccccc4)CC32)C1` (some centres undefined): the TGI was found to be 27.1 µM.

For `COc1ccc(-c2cc(C(=O)N3N=C(c4ccc(N)cc4)CC3c3ccc(Cl)cc3)c3ccccc3n2)cc1` (centres undefined), the GI50 was 6 µM and the TGI was > 100 µM.

Turning to `CCOC(=O)c1cc(C(=O)c2cc(OC)cc(OC)c2)n2nc(C)ccc12`, the GI50 is 0.672 µM and the TGI is > 100 µM.

As to `COC(=O)[C@]1(C)CC[C@]2(C)CC[C@]3(C)C4[C@H]5Oc6c(cc7c(c6C)CCC6[C@@]7(C)CC[C@@]7(C)C8[C@](C)(CCC[C@@]8(C)C(=O)OC)CC[C@]67C)O[C@H]5c5c(cc6c(c5C)O[C@@]5(C)C7=CC=C8[C@@](C)(CC[C@@]9(C)[C@@H]%10C[C@](C)(C(=O)OC)CC[C@]%10(C)CC[C@]89C)C7=CC(=O)[C@@]5(O)O6)[C@]4(C)CC[C@@]3(C)C2C1` (some centres undefined), the TGI was > 12.5 µM.

As to `Cc1ccc(NC(=O)c2ccc(CN3CC[C@H](N(C)C)C3)c(C(F)(F)F)c2)cc1Nc1nccc(-c2cncnc2)n1`, the GI50 is 10.3 µM and > 10 µM; the TGI was 27.8 µM and > 10 µM.

Consider `CCOC(=O)c1c(Sc2ccc([N+](=O)[O-])cc2[N+](=O)[O-])nc2c3ccccc3ccn12`, for which the TGI is > 100 µM.

Turning to `COc1cc(Nc2ncc3c(C)nc(-c4cccc(C(F)(F)F)c4)n3n2)cc(OC)c1OC`, the GI50 is 3.9 µM and the TGI was 7.9 µM.

As for `COc1cc(/C=C/c2cc(/C=C/c3ccc(O)c(OC)c3)n(C(=O)Cc3ccccc3)n2)ccc1O`, the GI50 was 1.68 µM and the TGI was 10.1 µM.

Take `FC(F)(F)c1ccc2c(c1)nc(-c1ccccc1)n2CC1CCCN2CCCCC12` (centres undefined): the TGI worked out at 59 µM.

Regarding `CC(CN(C)C)C(C#N)(c1ccccc1)c1ccccc1` (centres undefined), the TGI was > 100 µM.

As to `Cc1cccc(NS(=O)(=O)c2ccc3c(c2)OCCOCCOCCOCCO3)c1`, the TGI was > 100 µM.

Take `CCOC(=O)C1CSCCSC1`: the TGI is > 100 µM.

For `O=C(c1ccc(Oc2ccccc2)cc1Cl)c1c[nH]c2ncnc(N[C@@H]3CC[C@@H](CO)OC3)c12`, the GI50 was 0.75 µM and the TGI is 5.28 µM.

`CC1(C)OC(C(C)(C)O)C(C(C)(C)O)O1` (centres undefined): the TGI is > 100 µM.

On to `CCOC(=O)[C@]12C3C=CC(C3)C1C(=O)C1OC12` (some centres undefined), for which the TGI was > 100 µM.

Consider `NC(N)=Nc1ccc(CC(N)C(=O)NCC(=O)C(CC(=O)O)c2ncc(NC(=O)C(F)(F)F)o2)cc1` (centres undefined), for which the TGI is > 25 µM.

In the case of `COC(=O)C1=CC(=O)OC1(OO)c1ccc(Br)cc1` (centres undefined), the TGI is > 100 µM.

`C(=N\c1cc2cc(Sc3ccccc3)ccc2[nH]1)/c1ccccc1`: the TGI was > 12.5 µM.

For the compound `O=C(O)C1(Nc2ccc(Cl)cc2)CCCC1`, the TGI is > 100 µM.

With `CCOc1ccccc1/C=C(/C#N)C(N)=O`, the TGI was > 100 µM.

As for `COc1ccc(C(c2ccc(OC)cc2)N2C(=O)CCC2C(=O)O)cc1` (centres undefined), the TGI was > 100 µM.

As to `CCOC(=O)NC(=O)c1cn(CCN2CCN(C(=O)CCCCCCCCCCNc3ncnc4c3ncn4C3OC(CO)C(O)C3O)CC2)c(=O)[nH]c1=O` (centres undefined), the TGI is > 100 µM.

Take `Cc1cccc(C)c1NC(=O)CCC(=O)NNc1nnc(C)n1N`: the TGI was > 100 µM.

Consider `N#CNC1=NC(Cc2ccccc2)C(=O)N1CCc1c[nH]c2ccccc12` (centres undefined), for which the TGI is > 100 µM.

`Cn1c(C2CCCc3c2c2ccccc2n3C)cc2ccccc21` (centres undefined): the TGI is > 318 µM.

`O=[N+]([O-])c1ccc(NC(=S)N=Nc2c(O)[nH]c3ccccc23)cc1` displayed a TGI of 38.9 µM.

`CCOC(=O)/C=C1/Oc2ccccc2C1(C)O` (centres undefined): the TGI was > 100 µM.

Take `CCC(=O)OCC1OC(n2cnc3c(=S)nc(N)[nH]c32)C(OC(=O)CC)C1OC(=O)CC` (centres undefined): the GI50 is 25.8 µM and the TGI is > 100 µM.

As for `CO[C@@H](C)Cn1c(=O)n(C)c2cnc3ccc(-c4cncc(C(C)(C)O)c4)cc3c21`, the GI50 was 0.112 µM and 0.0748 µM; the TGI is 1.61 µM and 2.08 µM.

On to `CCOC(=O)NC(NCC(O)c1ccccc1)(C(F)(F)F)C(F)(F)F` (centres undefined), for which the TGI is > 100 µM.

`CN1C(=O)C(/C=N/NC(=O)c2cccnc2)C(N)N(C)C1=O` (centres undefined): the TGI is > 100 µM.

For the compound `CC1(C)COC(c2ccccc2-c2ccccc2)=N1`, the TGI was > 100 µM.

For the compound `COc1cc2c(cc1OCCCCCN1C(=O)c3cccc4cccc(c34)C1=O)N=C[C@@H]1CCCN1C2=O`, the TGI was 8.04 µM.

With `CN(C)C1C(CO)OC(n2cnc3c(N)ncnc32)C1O` (centres undefined), the TGI was > 100 µM.

Turning to `C1CSC2=C(S1)SC1=C(S2)SC(=C2SC3=C(SC4=C(SCCS4)S3)S2)S1`, the TGI was > 100 µM.

For the compound `C#CC1(O)C(COP(=O)(O)OC(COCCCCCCCCCCCCCCCCCC)COP(=O)(O)OCC2OC(n3cc(C)c(=O)[nH]c3=O)CC2N=[N+]=[N-])OC(n2ccc(N)nc2=O)C1O` (centres undefined), the TGI is > 19.8 µM.

Compound `CN(C)CCNC(=O)c1cccc2nc3c(ccc4ccccc43)nc12` gave a TGI of 11.7 µM.

As to `C[Si](C)(C)CNC(=O)OCc1ccccc1`, the TGI was > 100 µM.

For `Clc1ccc(-c2nc3ccc(Cl)cc3[nH]2)cc1`, the TGI is > 100 µM.

Consider `CCOC(=O)c1c(NNc2ccccc2)nc2ccccc2c1-c1ccccc1`, for which the TGI was > 100 µM.

Consider `N#CC1=C(N)OC2=C(CCCc3ccc([N+](=O)[O-])cc32)C1c1ccccc1` (centres undefined), for which the TGI worked out at 50.7 µM.

Turning to `Cc1ccc(S(=O)(=O)N/N=C2/C3CCC(C3)C2c2ccccc2)cc1` (centres undefined), the TGI is > 100 µM.

Turning to `NC(=O)C1CCCNC1` (centres undefined), the TGI is > 100 µM.

Regarding `Cn1cc(-c2csc(-c3c[nH]c4ccc(F)cc34)n2)c2cccnc21`, the GI50 is 8.82 µM and the TGI is > 100 µM.

As for `COC1=CC(=O)c2c(c(-c3csc(C)n3)cn2C)C1=O`, the TGI is > 65.1 µM.
